# Measurements as given in the supplement of paper PMC8728848.
# This is one part of the list.
# B1: EPL1 (Trichoderma atroviride), A0PCX2 (protein)
# chain: MQLSNLFKLALFTAAVSADTVSYDTGYDDASRSLTVVSCSDGTNGLITRYHWQTQGQIPRFPYIGGAQAVAGWNSPNCGTCWKLTYSGKTIYVLAIDHTAAGFNIGLDAMNALTNGNAVALGRVSATASQVAVSNCGL
# Key:
# Assay in all cases: glycan array binding signal (z-score within array); higher = stronger binding
# Settings in all cases: glycan notation: IUPAC condensed, linker removed
# [1] = target: Neu5Ac(a2-6)GlcNAc(b1-4)GlcNAc(b1-4)GlcNAc
# In short: (§1)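 The binding signal is a Z-score computed within each array. Data were drawn from 3228 arrays in the Consortium for Functional Glycomics database, restricted to those with a known protein sequence. Scores were averaged over arrays of the same protein sequence at different concentrations or buffers, and over linkers, and negative values can be taken as non-binding.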
# Neu5Ac(a2-8)Neu5Ac = target: Neu5Ac(a2-8)Neu5Ac
# In short: as §1
# [2] = target: Neu5Ac(a2-8)Neu5Ac(a2-3)Gal(b1-3)GalNAc(b1-4)[Neu5Ac(a2-3)]Gal(b1-4)Glc
# In short: as §1
# [3] = target: Neu5Ac(a2-8)Neu5Ac(a2-3)Gal(b1-3)GalNAc(b1-4)[Neu5Ac(a2-8)Neu5Ac(a2-3)]Gal(b1-4)Glc
# In short: as §1
# [4] = target: Neu5Ac(a2-8)Neu5Ac(a2-3)Gal(b1-4)Glc
# In short: as §1
# [5] = target: Neu5Ac(a2-8)Neu5Ac(a2-3)Gal(b1-4)GlcNAc
# In short: as §1
# [6] = target: Neu5Ac(a2-8)Neu5Ac(a2-3)[Gal(b1-3)GalNAc(b1-4)]Gal(b1-4)Glc
# In short: as §1
# [7] = target: Neu5Ac(a2-8)Neu5Ac(a2-3)[GalNAc(b1-4)]Gal(b1-4)Glc
# In short: as §1
# [8] = target: Neu5Ac(a2-8)Neu5Ac(a2-8)Neu5Ac
# In short: as §1
# [9] = target: Neu5Ac(a2-8)Neu5Ac(a2-8)Neu5Ac(a2-3)Gal(b1-4)Glc
# In short: as §1
# [10] = target: Neu5Ac(a2-8)Neu5Ac(a2-8)Neu5Ac(a2-3)[Gal(b1-3)GalNAc(b1-4)]Gal(b1-4)Glc
# In short: as §1
# [11] = target: Neu5Ac(a2-8)Neu5Ac(a2-8)Neu5Ac(a2-3)[GalNAc(b1-4)]Gal(b1-4)Glc
# In short: as §1
# [12] = target: Neu5Ac(a2-8)Neu5Ac(a2-8)Neu5Ac(a2-8)Neu5Ac(a2-3)[GalNAc(b1-4)]Gal(b1-4)Glc
# In short: as §1
# [13] = target: Neu5Ac(a2-8)Neu5Gc(a2-3)Gal(b1-4)GlcNAc
# In short: as §1
# [14] = target: Neu5Ac(b2-6)Gal(b1-4)GlcNAc
# In short: as §1
# Neu5Ac(b2-6)GalNAc = target: Neu5Ac(b2-6)GalNAc
# In short: as §1
# [15] = target: Neu5Ac9Ac(a2-3)Gal(b1-3)GlcNAc
# In short: as §1
# [16] = target: Neu5Ac9Ac(a2-3)Gal(b1-4)GlcNAc
# In short: as §1
# [17] = target: Neu5Ac9Ac(a2-6)Gal(b1-4)GlcNAc
# In short: as §1
# [18] = target: Neu5Gc(a2-3)Gal(b1-3)GlcNAc
# In short: as §1
# [19] = target: Neu5Gc(a2-3)Gal(b1-3)[Fuc(a1-4)]GlcNAc
# In short: as §1
# Neu5Gc(a2-3)Gal(b1-4)Glc = target: Neu5Gc(a2-3)Gal(b1-4)Glc
# In short: as §1
# [20] = target: Neu5Gc(a2-3)Gal(b1-4)GlcNAc
# In short: as §1
# [21] = target: Neu5Gc(a2-3)Gal(b1-4)GlcNAc(b1-3)Gal(b1-4)GlcNAc(b1-2)Man(a1-3)[Neu5Gc(a2-3)Gal(b1-4)GlcNAc(b1-3)Gal(b1-4)GlcNAc(b1-2)Man(a1-6)]Man(b1-4)GlcNAc(b1-4)GlcNAc
# In short: as §1
# [22] = target: Neu5Gc(a2-3)Gal(b1-4)[Fuc(a1-3)]GlcNAc
# In short: as §1
# [23] = target: Neu5Gc(a2-6)Gal(b1-4)GlcNAc
# In short: as §1
# Neu5Gc(a2-6)GalNAc = target: Neu5Gc(a2-6)GalNAc
# In short: as §1
# [24] = target: Neu5Gc(a2-8)Neu5Ac(a2-3)Gal(b1-4)GlcNAc
# In short: as §1
# [25] = target: Neu5Gc(a2-8)Neu5Gc(a2-3)Gal(b1-4)GlcNAc
# In short: as §1
# [26] = target: Neu5Gc(a2-8)Neu5Gc(a2-3)Gal(b1-4)GlcNAc(b1-3)Gal(b1-4)GlcNAc
# In short: as §1
# [27] = target: Neu5Gc(a2-8)Neu5Gc(a2-6)Gal(b1-4)GlcNAc
# In short: as §1
# [28] = target: Neu5Gc(b2-6)Gal(b1-4)GlcNAc
# In short: as §1
binder,measurement,setting,value
B1,glycan array binding signal (z-score),[1],-0.416
same,glycan array binding signal (z-score),Neu5Ac(a2-8)Neu5Ac,-0.319
same,glycan array binding signal (z-score),[2],-0.378
same,glycan array binding signal (z-score),[3],0.216
same,glycan array binding signal (z-score),[4],-0.383
same,glycan array binding signal (z-score),[5],-0.041
same,glycan array binding signal (z-score),[6],-0.002
same,glycan array binding signal (z-score),[7],0.213
same,glycan array binding signal (z-score),[8],-0.195
same,glycan array binding signal (z-score),[9],-0.013
same,glycan array binding signal (z-score),[10],-0.047
same,glycan array binding signal (z-score),[11],-0.275
same,glycan array binding signal (z-score),[12],-0.288
same,glycan array binding signal (z-score),[13],-0.39
same,glycan array binding signal (z-score),[14],-0.294
same,glycan array binding signal (z-score),Neu5Ac(b2-6)GalNAc,-0.299
same,glycan array binding signal (z-score),[15],-0.341
same,glycan array binding signal (z-score),[16],0.319
same,glycan array binding signal (z-score),[17],0.049
same,glycan array binding signal (z-score),[18],-0.09
same,glycan array binding signal (z-score),[19],-0.09
same,glycan array binding signal (z-score),Neu5Gc(a2-3)Gal(b1-4)Glc,-0.246
same,glycan array binding signal (z-score),[20],-0.074
same,glycan array binding signal (z-score),[21],0.362
same,glycan array binding signal (z-score),[22],-0.169
same,glycan array binding signal (z-score),[23],0.038
same,glycan array binding signal (z-score),Neu5Gc(a2-6)GalNAc,-0.456
same,glycan array binding signal (z-score),[24],-0.344
same,glycan array binding signal (z-score),[25],-0.145
same,glycan array binding signal (z-score),[26],-0.497
same,glycan array binding signal (z-score),[27],-0.247
same,glycan array binding signal (z-score),[28],-0.242
